# Measurements: PMC4336329 (PLoS ONE, 2015)
# In all, about 310,000 compounds went through this assay and about 2,200 (0.71%) showed an effect of 50% or more. The effect is printed as a negative number. The list shows a part of the results.
# Molecular target: human ether-à-go-go-related gene (hERG) potassium channel (human, UniProt Q12809)
# Test: primary screen, population patch clamp on CHO cells stably expressing hERG
# Chain of human ether-à-go-go-related gene (hERG) potassium channel (Q12809 whole entry, looked up): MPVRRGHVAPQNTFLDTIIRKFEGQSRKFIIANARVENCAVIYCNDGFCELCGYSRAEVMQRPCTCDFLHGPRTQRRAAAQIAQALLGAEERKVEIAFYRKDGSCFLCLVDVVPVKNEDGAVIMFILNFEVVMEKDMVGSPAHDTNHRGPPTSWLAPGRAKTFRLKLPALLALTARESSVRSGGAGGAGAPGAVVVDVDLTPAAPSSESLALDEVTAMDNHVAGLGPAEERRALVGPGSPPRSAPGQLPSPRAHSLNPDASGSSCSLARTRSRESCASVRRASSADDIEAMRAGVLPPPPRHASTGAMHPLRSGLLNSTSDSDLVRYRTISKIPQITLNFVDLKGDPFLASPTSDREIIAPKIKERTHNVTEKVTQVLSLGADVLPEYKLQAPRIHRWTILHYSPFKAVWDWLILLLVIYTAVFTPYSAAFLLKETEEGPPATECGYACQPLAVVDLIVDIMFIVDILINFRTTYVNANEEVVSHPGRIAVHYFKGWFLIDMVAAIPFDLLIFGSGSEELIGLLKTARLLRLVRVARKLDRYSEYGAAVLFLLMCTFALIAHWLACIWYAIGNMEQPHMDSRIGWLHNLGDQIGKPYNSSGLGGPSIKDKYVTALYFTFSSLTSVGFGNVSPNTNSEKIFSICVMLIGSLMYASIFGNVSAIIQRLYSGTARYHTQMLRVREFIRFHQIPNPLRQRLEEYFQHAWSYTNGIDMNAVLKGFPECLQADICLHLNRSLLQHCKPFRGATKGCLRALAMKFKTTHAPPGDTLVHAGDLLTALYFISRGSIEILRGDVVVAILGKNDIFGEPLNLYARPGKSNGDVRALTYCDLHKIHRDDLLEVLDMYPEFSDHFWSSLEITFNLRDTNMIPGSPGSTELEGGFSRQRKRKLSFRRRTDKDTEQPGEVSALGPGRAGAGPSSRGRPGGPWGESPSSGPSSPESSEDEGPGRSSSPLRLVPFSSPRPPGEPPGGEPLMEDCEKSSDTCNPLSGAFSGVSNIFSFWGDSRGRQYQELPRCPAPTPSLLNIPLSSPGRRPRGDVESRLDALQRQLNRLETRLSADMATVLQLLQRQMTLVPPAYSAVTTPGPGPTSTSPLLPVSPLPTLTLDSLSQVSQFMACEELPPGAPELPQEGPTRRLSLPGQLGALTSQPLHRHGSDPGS
row,SMILES,"hERG current change (%, negative = inhibition) at 1uM [%]"
1,CCOC(=O)c1c(C)[nH]c(C)c1S(=O)(=O)NCCc1ccc(SC)cc1,16.8
2,O=C1CC(N2CCC(c3nc4ccccc4[nH]3)CC2)C(=O)N1c1cccc(F)c1 (stereo not shown),-1.4
3,O=C(Nc1ccc(Cl)c(Cl)c1)NC1CCS(=O)(=O)C1 (stereo not shown),12.8
4,Cl.O=C(CCN1C(=O)c2ccccc2S1(=O)=O)N1CCN(c2ccccc2)CC1,8.63
5,CC(C)OCCCNC(=O)c1ccc(CS(=O)(=O)Cc2ccccc2F)o1,4.44
6,CCSc1nc(=S)cc(C)[nH]1,4.66
7,Cc1ccc(C(O)(c2ccccc2)c2ccccc2C(C)N(C)C)c(C)c1 (stereo not shown),9.73
8,CCOC(=O)c1sc2ncn(C(CC)C(=O)OCC)c(=O)c2c1C (stereo not shown),10.7
9,NC(=O)CC(NC(=O)c1cccc(Br)c1)c1ccc(NC2CCCCCCCCCCC2)c([N+](=O)[O-])c1 (stereo not shown),10.1
10,CCn1c(SCC(=O)Nc2ccc(C)cc2)nc2sc3c(c2c1=O)CCN(C)C3,10.5
11,CCOC(=O)c1ccc(NC(=O)CC2C(=O)N(c3ccccc3)C(=O)N2CCCOC)cc1 (stereo not shown),3.69
12,O=C(NCc1ccc(Cl)s1)C1CCC(=O)N(CCc2cccc(F)c2)C1 (stereo not shown),-44
13,CCOc1ccccc1NC(=O)C1C2C=CC(O2)C1C(=O)O (stereo not shown),11.4
14,O=C1CC(c2ccc3ccccc3c2)NN1 (stereo not shown),7.6
15,Cn1c2ccccc2c2ncn(CCC3=CCCCC3)c(=O)c21,8.44
16,O=C(CCCc1nc2ccccc2s1)N1CCN(c2ccccc2F)CC1,-2.81
17,Cc1ccc(C(=O)CCS(=O)(=O)c2ccc(Br)cc2)cc1,8.49
18,CCn1c(SCC(=O)N2CCCCC2)nc2c1c(=O)n(C)c(=O)n2C,12.5
19,Cc1cccc(N2CCN(C(=O)Cn3cnc4c3c(=O)n(C)c(=O)n4C)CC2)c1C,-1.92
20,NC(=O)[C@@H]1CCCCNc2c(F)cc([N+](=O)[O-])cc2C(=O)N[C@@H](CC(=O)O)C(=O)NCC(=O)N1,7.87
21,CC(C(=O)O)n1cnc2sc3c(c2c1=O)CCCC3 (stereo not shown),0.243
22,O=C(COC(=O)C1CCN(c2ccc(C(F)(F)F)cn2)CC1)Nc1ccc(Cl)cc1,3.73

row,SMILES,"hERG current change (%, negative = inhibition) at 1uM [%]"
1,COC(=O)Nc1ccc(S(=O)(=O)NC2CCCCC2)cc1,19.4
2,CC1CCN(S(=O)(=O)c2ccc(C(=O)Nc3ccccn3)cc2)CC1,4.4
3,CCN(CC)S(=O)(=O)c1cccc(NC(=O)c2ccc(C#N)cc2)c1,3.29
4,COc1ccc(CCNC(=O)c2ccc3c(c2)OCCO3)cc1,5.71
5,CCc1ccc(N=C2NC(=O)/C(=C/c3cc(Br)c(OCC(=O)O)c(OC)c3)S2)cc1,1.15
6,COC(=O)c1ccc(CNC(=O)CN(CCC(C)C)S(=O)(=O)c2ccc3c(c2)OCCO3)cc1,-1.72
7,Cc1ccc(NC(=O)CSc2nc3ccccc3c3nc(CCn4cncc4C)nn23)c(C)c1,12.3
8,Clc1ccc(-c2csc(N/N=C/c3ccco3)n2)cc1,11.8
9,Nc1nonc1NC(=O)CSc1ncccc1C(=O)O,11.8
10,Cc1ccc(Cl)cc1NC1=NC(=S)N(C(C)C)C12CCCCC2,16.2
11,CN1CCC(=O)N([C@H](CO)Cc2ccccc2)CC1,6.48
12,O=C(COC(=O)CNC(=O)c1ccco1)NCc1ccc(F)cc1,10.4
13,CCOc1ccc(Cc2n[nH]c(=S)n2Cc2ccccc2)cc1,8.61
14,COc1cc(OC)c(-n2cc(-c3ccc(OC)c(OC)c3)[nH]c2=S)cc1Cl,12.6
15,CCCc1ccc(OCc2ccc(C(=O)OC)o2)c(OC)c1,0.548
16,CCN1CCN(CCNC(=O)c2cn(Cc3ccccc3F)nn2)CC1,12.2
17,NC(=O)c1ccc(NCC2COc3ccccc3O2)c([N+](=O)[O-])c1 (stereo not shown),8.17
18,COc1cc2c(C(=O)NCCCN3CCN(c4cccc(Cl)c4)CC3)cn(C)c(=O)c2cc1OC,-6.52
19,Cc1ccc(-c2ccc(SCC(=O)Nc3nonc3C)nn2)cc1,13.9
20,O=C(NCc1cn(-c2ccccc2)nc1-c1ccccc1)c1cc([N+](=O)[O-])cc([N+](=O)[O-])c1,10
21,Cc1ccc(-n2ccnc(SCC(=O)NCCc3ccccc3)c2=O)cc1F,16.1
22,Cc1onc(-c2ccccc2Cl)c1C(=O)N1CCN(c2cccc(Cl)c2)CC1,10.7

row,SMILES,"hERG current change (%, negative = inhibition) at 1uM [%]"
1,CN(C)S(=O)(=O)c1ccc(Cl)c(C(=O)OCC(=O)NC(=O)c2cccn2C)c1,6.7
2,CCN(CC)c1ccc(N=Cc2c(O)[nH]c(=O)[nH]c2=O)cc1,11.7
3,CCOc1ccccc1CNC(=O)c1cc2oc3ccccc3c2n1CC,-0.472
4,CCCCNC(=O)Cn1nc(Cc2ccncc2)c2ccccc2c1=O,26.5
5,O=C(Nc1ccccn1)C1(c2cccs2)CCOCC1,7.28
6,Cn1cc(C(=O)N/N=C/c2cc(Br)cs2)c2ccccc21,13.8
7,CC1(C)N([O-])c2cc([N+](=O)[O-])ccc2[N+]1=O.NO,12.6
8,Cc1ccccc1NC(=O)COc1ccc2c(c1)OC(C)(C)CC2=O,13.8
9,COc1cc(OC)c(OC)cc1/C=N/n1c(COc2ccccc2)n[nH]c1=S,10.7
10,COc1ccc(-n2c(-c3ccc(Br)cc3)n[nH]c2=S)cc1,14
11,CCC(C)NC(=O)Cn1cnc([N+](=O)[O-])c1 (stereo not shown),11.2
12,COc1cc2cc(C)c3nnc(SCC(=O)Nc4cc(C)on4)n3c2cc1OC,12.4
13,CCOC(=O)Nc1c(C(=O)OC)[nH]c2cccc(OC)c12,13.7
14,COc1ccc(CN(C(=O)c2snc(C(N)=O)c2N)C(C(=O)NC2CCCC2)c2ccco2)cc1 (stereo not shown),2.77
15,Cc1n(N)c2ccccc2[n+]1CC(=O)c1ccccc1.[Br-],7.93
16,COc1ccc(C(=O)OC(C)CN2CCOCC2)cc1OC.Cl (stereo not shown),8.2
17,CC(=O)Nc1nnc(SCc2cc(=O)c(OC(=O)c3ccccc3)co2)s1,10.5
18,COc1ccc(CCNC(=O)c2ccc(Cl)c(S(=O)(=O)N(C)c3ccccc3)c2)cc1,7.95
19,COc1ccc(/C=C(/NC(=O)c2ccco2)C(=O)NCCc2ccccc2)cc1,-7.33
20,COc1cc(NC(=O)c2ccco2)ccc1NC(=O)C(C)C,-0.252
21,CC(=O)Nc1cccc(Cl)c1C(=O)O,2.29
22,Br.CN1CCc2cc3c(c4c2[C@H]1[C@H](O)c1ccccc1-4)OCO3,6.95

row,SMILES,"hERG current change (%, negative = inhibition) at 1uM [%]"
1,CN(C(=O)CSc1nc2cc([N+](=O)[O-])ccc2n1-c1ccc(F)cc1)C1CCS(=O)(=O)C1 (stereo not shown),8.63
2,C=CCn1c(SCC2=C(C(=O)OCC)C(C)NC(=O)N2)nnc1C1CCCCC1 (stereo not shown),14.8
3,CCN(Cc1ccccc1)S(=O)(=O)c1ccc(OC)c2ncccc12,-4.51
4,O=C(COc1ccc(Br)cc1)N1CCN(C2CCCC2)CC1,-42.1
5,C/C(=N\Nc1cc(C)nc(-c2ccccc2O)n1)c1ccccc1O,17.1
6,CCOC(=O)COc1ccc(S(=O)(=O)NCc2ccncc2)cc1,8.78
7,O=C(O)c1cnc(-c2ccccc2)nc1Oc1ccccc1,6.11
8,O=C1NCC(O)=C1C=NCCCO,16.3
9,CSc1nnc(C(C)(C)C)c(=O)n1/N=C/c1ccccc1O,5.91
10,CC(/C=N/NC(=O)c1nnn(-c2nonc2N)c1C)=C\c1ccccc1,12.2
11,COc1ccc(C)cc1S(=O)(=O)N1c2ccccc2CC1C (stereo not shown),-8.25
12,COc1ccccc1CCNCc1cccc(C(F)(F)F)c1.O=C(O)C(=O)O,12.3
13,COc1ccc(/C=C(/NC(=O)c2ccccc2)C(=O)N2CCCC2)cc1,6.1
14,COc1cccc(CSc2nc3ccccc3cc2C=O)c1,6.21
15,COc1cccc(C2C(C#N)=C(N)N(N(C)C)C3=C2C(=O)CCC3)c1OC (stereo not shown),16.4
16,CCC(C)c1ccc(NC(=O)C2CCN(c3ncccn3)CC2)cc1 (stereo not shown),13
17,C/C(=N\NC(=O)c1ccncc1)c1cccc(NC(=O)c2ccc(C(C)(C)C)cc2)c1,-9.64
18,CC(C(=O)Nc1cccc(Br)c1)c1ccc([N+](=O)[O-])cc1 (stereo not shown),6.23
19,Cc1ccc(NC(=O)COC(=O)CCc2c[nH]c3ccccc23)c(C)c1,7.61
20,O=C(COc1ccc2c(-c3ccccc3)cc(=O)oc2c1)NC1CCS(=O)(=O)C1 (stereo not shown),10.9
21,CCc1ccc2nc(SCC(=O)Nc3nnc(C)s3)c(C)cc2c1,11.5
22,CC(=O)c1ccc(NC(=S)NC(=O)Cc2ccc(Cl)cc2)cc1,17.5
